Test results taken from US20120302598A1, “IMIDAZOPYRIDINONES” (PFIZER LIMITED, priority 2007, published 2012).

Molecular target: T1, TLR7 (Homo sapiens, UniProt Q9NYK1)
T1 construct: PBL contain as a subpopulation plasmacytoid dendritic cells which are the natural interferon producing cells; endogenous in cells; host or cells: peripheral blood lymphocytes (PBL), containing plasmacytoid dendritic cells
T1 sequence (Q9NYK1 27-1049): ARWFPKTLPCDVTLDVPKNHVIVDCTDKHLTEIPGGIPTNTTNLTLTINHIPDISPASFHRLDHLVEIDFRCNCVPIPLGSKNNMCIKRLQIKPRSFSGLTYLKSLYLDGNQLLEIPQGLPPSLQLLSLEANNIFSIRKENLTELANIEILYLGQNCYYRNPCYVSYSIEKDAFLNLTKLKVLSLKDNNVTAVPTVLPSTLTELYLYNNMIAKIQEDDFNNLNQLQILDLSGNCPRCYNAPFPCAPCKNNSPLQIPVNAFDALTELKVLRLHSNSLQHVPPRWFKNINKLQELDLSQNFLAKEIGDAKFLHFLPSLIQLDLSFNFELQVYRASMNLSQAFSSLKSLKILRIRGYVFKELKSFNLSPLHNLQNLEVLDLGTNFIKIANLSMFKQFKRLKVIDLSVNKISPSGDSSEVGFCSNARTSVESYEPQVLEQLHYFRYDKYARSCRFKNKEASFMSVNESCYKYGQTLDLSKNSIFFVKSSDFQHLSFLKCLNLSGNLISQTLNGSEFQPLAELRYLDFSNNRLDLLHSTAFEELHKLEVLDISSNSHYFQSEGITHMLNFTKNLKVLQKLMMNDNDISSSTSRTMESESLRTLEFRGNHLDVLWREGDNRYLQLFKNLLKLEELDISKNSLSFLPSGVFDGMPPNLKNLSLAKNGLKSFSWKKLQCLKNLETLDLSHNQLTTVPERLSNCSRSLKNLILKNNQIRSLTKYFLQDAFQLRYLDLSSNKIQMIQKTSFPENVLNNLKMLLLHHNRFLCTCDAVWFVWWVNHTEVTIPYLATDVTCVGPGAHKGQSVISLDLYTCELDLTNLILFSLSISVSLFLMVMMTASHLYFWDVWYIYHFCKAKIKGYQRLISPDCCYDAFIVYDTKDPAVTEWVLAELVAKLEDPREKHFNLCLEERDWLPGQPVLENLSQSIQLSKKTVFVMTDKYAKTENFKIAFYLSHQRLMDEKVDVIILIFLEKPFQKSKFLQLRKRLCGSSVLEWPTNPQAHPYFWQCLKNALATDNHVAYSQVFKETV
Test: PBL/HCV replicon bioassay
Type: cell-based
Conditions: read-out: EC50 (nM) (n = no. of experiments)
Text: EMCV: Encephalomyocarditis virus IRES: Internal ribosmomal entry site Huh: Huh-7 human hepatoma cell line 7 (parental cells used to generate HCV replicon cell lines) IUC: luciferase ubi: ubiquitin neo: neomycin ET: glutamic acid, threonine (cell culture adaptive mutations in the replicon used in the assay) RPMI-FCS: Roswell Park Memorial Institute (cell culture medium for PBL)—Foetal Calf Serum PBL: peripheral blood lymphocytes
PBL contain as a subpopulation plasmacytoid dendritic cells which are the natural interferon producing cells during an infection and as such are an excellent model in which to profile interferon inducers. As an extremely sensitive antiviral bioassay, supernatant taken from PBL is assayed for antiviral activity in the HCV replicon system.
The HCV replicon (Huh-5-2[l389 luc-ubi-neo-NS3-3′/ET]) is an in vitro model of HCV replication in which the luciferase reporter is incorporated into HCV sequences and stably maintained in the human hepatoma cell line Huh-7. The firefly luciferase reporter is expressed as a luciferase-ubiquitin-neomycin phosphotransferase fusion protein which is cleaved by host proteases to release luciferase. […] Firefly luciferase activity is detected using a Bright-Glo™ Luciferase Assay System manufactured by Promega. […]

Structure (SMILES): Cc1ccc(Cn2c(=O)[nH]c3c(N)nc(OC[C@@H]4CCCO4)cc32)cn1 [Example 7, 4-Amino-1-(6-methyl-pyridin-3-ylmethyl)-6-(tetrahydro-furan-2-S-ylmethoxy)-1,3-dihydro-imidazo[4,5-c]pyridin-2-one]
- EC50: 54 nM, 60 nM, 91 nM, 40 nM, 1.24 µM, 913 nM, 3.42 µM [lines of one column]

For part of its entries the source gives two or more results. They are shown here; other results are not. The source may hold further records. The records of an entry seem to repeat one measurement; one of them may be the mean.
